Several values for one entry are separate records, joined by “and”; a condition that tells them apart may be missing. Equal entries are not always repeated. Out of some 150,000 compounds screened, about 6,500 (4.3%) were called active. Inconclusive means that the source gave no clear call. Such entries were picked first, then a sample of the others. Calls come from the whole dose curve; as a rule, active = well fitted inhibition curve with a large enough effect (not every such curve was filed as active); inconclusive = small, poorly fitted or top-dose-only effect, or another doubt; inactive = no such curve, though single readings can be large or run the other way. Potencies of inconclusive entries are left out as doubtful fits.
These compounds were tested against 15-hydroxyprostaglandin dehydrogenase [NAD(+)] (Homo sapiens) (UniProt P15428) (assay: qHTS Assay for Inhibitors of HPGD (15-Hydroxyprostaglandin Dehydrogenase)). Conditions: purified HPGD, NADH fluorescence kinetic, PGE2 substrate; activity change, negative = inhibition: stronger effect = lower value.
UniProt P15428, sequence (P15428 whole entry, looked up): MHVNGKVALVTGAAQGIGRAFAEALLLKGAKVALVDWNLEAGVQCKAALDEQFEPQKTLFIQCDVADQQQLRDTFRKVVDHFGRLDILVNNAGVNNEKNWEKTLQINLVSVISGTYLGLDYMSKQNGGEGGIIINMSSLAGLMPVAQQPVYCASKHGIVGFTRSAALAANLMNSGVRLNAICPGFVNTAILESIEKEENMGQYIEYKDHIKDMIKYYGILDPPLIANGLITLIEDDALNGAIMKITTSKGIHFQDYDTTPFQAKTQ
Procedure, shortened: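 NADH formation kinetics: reaction with 30 uM PGE2 and 1 mM NAD+ (final), 20 nM enzyme, Tris-HCl pH 8 with Tween 20, after 15 min compound preincubation at room temperature. Fluorescence change, last versus first of five reads.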
% is set by controls: 0 for no effect and ±100 for the full control effect; potency is the fitted concentration of half-maximal effect; tags give direction and shape of the fitted curve.

Compound | Potency | activity change, negative = inhibition
COc1ccc(-c2cn3ccccc3n2)cc1OC | inconclusive [inhibitor, partial curve] | –
COc1cccc2cc3c(=O)oc4ccccc4c3nc12 | inconclusive [inhibitor, partial curve] | –
COc1ccccc1Nc1ccc(C(=O)NC2CCCCC2)cn1 | active: 15.8 µM | –
CC(C)(C)c1cc(=O)n2c(C#N)c(C#N)nc2[nH]1 | inconclusive [inhibitor, partial curve] | –
Cc1nnc(SCCn2c(N3CCN(C)CC3)nc3c2c(=O)[nH]c(=O)n3C)s1 | – | inactive: -5.57%
Cc1cccc(C(=O)NC(NC(=S)Nc2ccc(S(N)(=O)=O)cc2)C(Cl)(Cl)Cl)c1 (stereo unspecified) | inconclusive [inhibitor, partial curve] | –
COC(=O)c1ccc(COC(=O)c2ccc(N(C)C)cc2)cc1 | inconclusive [inhibitor, partial curve] | –
COc1ccc(Nc2nc(C)c(-c3ccccc3)s2)cc1 | active: 20 µM | –
COc1cc2c(cc1OC)C(c1ccc(-c3ccccc3Cl)o1)=NCC2 | – | inactive: -21.2%
C/C(CCc1ccc2c(c1)OCO2)=N\N=C(/N)SC1CC(=O)N(c2ccccc2F)C1=O (stereo unspecified) | inconclusive [inhibitor, single point] | –
Cc1cc(C)nc(NC(=O)CSc2nn(C)c(=S)s2)n1 | inconclusive [inhibitor, partial curve] | –
CCOc1ccc2ccccc2c1/C=N/NC(=O)CNC(=O)Cc1ccccc1 | inconclusive [inhibitor, single point] | –
O=C1c2ccccc2NC(c2ccccc2Cl)N1N=C1CCCCCC1 (stereo unspecified) | inconclusive [inhibitor, partial curve] | –
COc1ccc(-c2ccc(/C=C3/C(=N)N4C=CSC4=NC3=O)o2)c([N+](=O)[O-])c1 | inconclusive [inhibitor, partial curve] | –
COC(=O)c1cc(COc2ccc3ccc(=O)oc3c2)c(C)o1 | inconclusive [inhibitor, partial curve] | –
CC1CCC(C(C)C)C(OC(=O)COC(=O)c2cc(O)ccc2N)C1 (stereo unspecified) | inconclusive [inhibitor, partial curve] | –
O=C(c1cc(O)c(O)c([N+](=O)[O-])c1)c1ccccc1F | active: 14.1 µM | –
O=C(Nc1cccc(F)c1)c1ccc(-c2ccccc2Cl)o1 | inconclusive [inhibitor, partial curve] | –
ICCc1ccccc1 | active: 10 µM | –
CC(C)CN1CCCC2(CCN(C(=O)c3cccn3C)CC2)C1 | – | inactive: -7.42%
COc1ccc(-c2nnc(OCc3nc4ccccc4n3C)c3ccccc23)cc1 | inconclusive [inhibitor, partial curve] | –
COC(=O)c1c(C)oc2ccc(OC(=O)c3cccs3)cc12 | – | inactive: -18.4%
COc1ccc(OC)c(NC(=O)c2cnc3n(c2=O)CCS3)c1 | inconclusive [inhibitor, partial curve] | –
O=C(/C=C/Nc1ccccc1F)c1cccs1 | – | inactive: -11.4%

Compound | Potency | activity change, negative = inhibition
COc1ccc(C2CC(c3ccccc3)=NN2C(=O)COC(=O)c2cc(S(=O)(=O)N3CCOCC3)ccc2Cl)cc1 (stereo unspecified) | inconclusive [inhibitor, partial curve] | –
CC(=O)c1ccc(OC(C)C)c(CSc2nc(O)cc(=O)[nH]2)c1 | active: 3.55 µM | –
CCOC(=O)Cn1nnnc1CN(Cc1cccs1)Cc1cc2cc(C)cc(C)c2[nH]c1=O | inconclusive [inhibitor, single point] | –
COC(=O)CC1c2ccccc2C(Cc2ccc3c(c2)OCO3)=C(C)N1C(=O)OC (stereo unspecified) | – | inactive: -16% and inactive: -7.29%
CC(C)CC(=O)CN1C(=O)C2(OCCO2)c2ccccc21 | – | inactive: -6.53%
CCN(CC)CCCC(C)n1c(-c2ccccc2)nc2c(N(CCOC)CCOC)nc(C)nc21 (stereo unspecified) | inconclusive [inhibitor, single point] | –
Cc1cc(NCCCN2CCOCC2)n2nc(C)c(-c3ccc(F)cc3)c2n1 | inconclusive [inhibitor, partial curve] | –
COc1cccc(-n2c(SCc3cc(=O)oc4cc(O)c(O)cc34)nc3ccccc3c2=O)c1 | inconclusive [inhibitor, partial curve] | –
O=c1[nH]ccc2c(O)cccc12 | inconclusive [inhibitor, partial curve] | –
COc1ccccc1-n1cnnc1SC(C)C(=O)Nc1cccc([N+](=O)[O-])c1 (stereo unspecified) | – | inactive: -6.32%
O=c1c2c(nc3c(-c4cccc(Br)c4)c[nH]n13)CCCC2 | inconclusive [inhibitor, partial curve, poor fit] | –
CCN(CC)c1ccc(C(=O)N/N=C(\C)c2ccc(OC)c(OC)c2)cc1 | inconclusive [inhibitor, partial curve] | –
COC(=O)N1CCC2(CCN(C(=O)Nc3cccc(F)c3)CC2)CC1 | – | inactive: 1.81%
COc1ccc(Oc2ncc3ncc(=O)n(Cc4cccs4)c3n2)cc1 | – | inactive: -15.6%
COc1ccc(NC(=O)C2(c3ccc(NC(=O)c4ccc(C)cc4)cc3)CCCC2)cc1 | inconclusive [inhibitor, partial curve] | –
CCOc1cc(/C=C2/SC(=Nc3ccccc3)N(Cc3cccnc3)C2=O)ccc1OCC#N | inconclusive [inhibitor, partial curve] | –
COc1ccc2c(=O)c(C(=O)O)c(-c3ccc4c(c3)OCO4)n(C)c2c1 | inconclusive [inhibitor, single point] | –
Nc1nnc(CSCc2ccc(F)cc2)s1 | active: 22.4 µM | –
O=C(CSc1nnc(-c2ccccc2)c(-c2ccccc2)n1)Nc1ncc(Cl)cc1Cl | inconclusive [inhibitor, single point] | –
O=C(NCc1ccco1)c1cnc2sccn2c1=O | inconclusive [inhibitor, partial curve, poor fit] | –
O=C(COC(=O)c1cccc([N+](=O)[O-])c1)c1ccc(OCc2ccccc2)cc1 | – | inactive: -8.87%
CCCCN1C(=O)/C(=C2\SC(N3CCCCC3)=NC2=O)c2ccccc21 | active: 22.4 µM | –
CC(NC(=O)COC(=O)[C@@H]1CCCN1S(=O)(=O)c1ccccc1F)C12CC3CC(CC(C3)C1)C2 (stereo partly specified) | – | inactive: -26.2%
CCOC(=O)c1nn(-c2ccccc2F)c2nc(Nc3ccccc3)cc(=O)n12 | inconclusive [inhibitor, single point] | –

Compound | Potency | activity change, negative = inhibition
C[C@]12CCC3c4ccc(O)cc4CCC3C1CCC2=O (stereo partly specified) | – | inactive: -1.01%
CN(C(=O)c1cccs1)c1ccccc1C(=O)O | inconclusive [inhibitor, partial curve] | –
N#Cc1c(/N=C/C=C/c2ccccc2)sc2c1CCCC2 | active: 22.4 µM | –
CC1(C)Cc2c(sc3c4nnnn4c4nnnn4c23)CO1 | – | inactive: -15.3%
COc1ccccc1-c1nc(C#N)c(N2CCCCCC2)o1 | inconclusive [inhibitor, partial curve] | –
CCCNC(=O)c1ccccc1NC(=O)c1ccc(CSc2ccccc2)cc1 | inconclusive [inhibitor, partial curve] | –
Cc1ccc(S(=O)(=O)/N=C(/c2ccc(F)cc2)N2CCCCC2)cc1 | – | inactive: -9.21%
CCOC(=O)N1CCN(C(=O)c2cc3c(=O)n(C)c4ccccc4c3n2C)CC1 | – | inactive: -5.15%
Cc1ccc(-n2nnnc2SCCNS(=O)(=O)c2ccccc2)cc1C | – | inactive: -6.43%
O=C(c1cnn2c(C(F)(F)F)cc(-c3ccco3)nc12)N1CCCCCC1 | inconclusive [inhibitor, partial curve] | –
CCCNC(=O)OCCC12CC3CC(CC(C3)C1)C2 | – | inactive: -10.9%
CCOC(=O)CCSCC(=O)N1N=C(c2cccs2)CC1c1ccc(C)cc1 (stereo unspecified) | inconclusive [inhibitor, partial curve] | –
Cc1ccc2c(=O)cc(C(F)F)oc2c1 | inconclusive [inhibitor, partial curve] | –
CCOC(=O)Nc1ccc2c(CN3C(=O)NC4(CCCC4)C3=O)cc(=O)oc2c1 | inconclusive [inhibitor, partial curve] | –
CCOC(=O)c1c(C)cc(OC)cc1O | inconclusive [inhibitor, partial curve] | –
CC1=NNC(=O)/C1=C\c1cn(-c2ccccc2)nc1-c1cccs1 | active: 15.8 µM | –
CC(C)NC(=S)NC(=O)/C=C/c1ccc(F)cc1 | inconclusive [inhibitor, single point] | –
C/C(=N/NC(=O)c1ccc(Cl)s1)c1ccc(NC(=O)COc2ccc(Cl)cc2)cc1 | inconclusive [inhibitor, single point] | –
COc1cc(NS(=O)(=O)c2ccc(NC(=O)c3ccco3)cc2)nc(OC)n1 | – | inactive: -5.32%
FC(F)(F)c1cccc(NC(=S)NCc2ccccc2)c1 | active: 28.2 µM | –
O=C(NCCc1ccccc1)c1ccc(-c2ccccc2Cl)o1 | inconclusive [inhibitor, partial curve, poor fit] | –
O=C(c1cccn2c(=O)c3ccccc3nc12)N1CCN(Cc2ccc3c(c2)OCO3)CC1 | inconclusive [inhibitor, partial curve] | –
O=c1cc(-c2ccc(O)cc2)oc2cc(OC3OC(CO)C(O)C(O)[C@H]3O[C@@H]3OC[C@@](O)(CO)C3O)cc(O)c12 (stereo partly specified) | – | inactive: -23.5%

Reference: PubChem BioAssay AID894 (National Center for Advancing Translational Sciences (NCATS), 2007)
